# Measurements: PubChem BioAssay AID1508624 (National Center for Advancing Translational Sciences (NCATS), 2021)
# Screen size: about 48,000 compounds; about 120 (0.25%) were called active. Inconclusive results (about 4%) are left out. Calls follow the shape of the dose curve; as a rule, active = well fitted activation curve with a large enough effect; inconclusive = small, poorly fitted or top-dose-only effect, or another doubt; inactive = no such curve, though single readings can be large or run the other way. This is one part of the list.
# Assay: Primary qHTS for Identification of Small Molecule Activators of Huntingtin-Antisense Promoter Activity; also: nearly all actives have a fitted effect of over 55% in size
# Details: HEK293 HTT-AS promoter firefly luciferase reporter, 24 h; series mostly up to 57.5 µM; activity change, positive = activation: at the top concentration
# From the text: Assay Provider: Russell L. Margolis M.D.
# Department Neurology, Johns Hopkins University School of Medicine, Baltimore, MD
# Huntington's Disease (HD) is a neurodegenerative disorder caused by a CAG repeat expansion in exon 1 of huntingtin (HTT). While there are currently no disease-modifying treatments for HD, recent efforts have focused on development of nucleotide-based therapeutics to lower HTT expression. As an alternative to siRNA or oligonucleotide methods, we hypothesized that suppression of HTT expression might be accomplished by small molecules that either (1) directly decrease HTT expression by suppressing HTT promoter activity or (2) indirectly decrease HTT expression by increasing the promoter activity of HTT-AS, the gene antisense to HTT that appears to inhibit expression of HTT.
# We developed and employed a high throughput screen for modifiers of HTT and HTT-AS promoter activity using luminescent reporter HEK293 cells; of the 52,041 compounds tested, we identified 898 replicable hits. We used a rigorous stepwise approach to assess compound toxicity and the capacity of the compounds to specifically lower huntingtin protein in 5 different cell lines, including HEK293 cells, HD lymphoblastoid cells, mouse primary neurons, HD iPSCs differentiated into cortical-like neurons, and HD hESCs. We found no compounds which were able to lower huntingtin without lowering cell viability in all assays, though the potential efficacy of a few compounds at non-toxic doses could not be excluded.
# SEQUENCE No. (1, 2, 3, etc.); […] (e.g., Cells, Incubation, Reagent, etc.); VALUE and DESCRIPTION.
# 1; Reagent; 4 uL; 2,500 Hek293 luciferase reporter cells per wells
# 3; Compound; 23 nL; Control inhibitor / compound library
# 5; Reagent; 2.5 uL; Firefly Luc reagent; Dual-Glo Luciferase Reporter Assay System (Promega)
# 6; Time; 10 min; room temperature incubation
# 7; Detection; Luminescence; FLuc
# NOTES (numbers refer to sequence above)
# 1; High-throughput screening, measuring luminescence from a Hek293 luciferase reporter, was performed in 1,536 well white-walled tissue-culture treated plates. 2,500 cells were plated in 4 µL of Opti-MEM per well using a Multidrop Combi Reagent Dispenser (ThermoFisher).
# 2; Assay plates were cultured for 24 hours.
# 3; Control inhibitor (PTC124; final concentration of 50 uM) and compound library (at final concentrations of 460 nM - 57.5 uM) were added to the assay plate using the Kalypsis Pintool Robotic System equipped with 1536 pinheads.
# 4; Cells were then incubated for 24 hours at 37 degrees C prior to luminescence measurements.
# 5; In all cases, luminescence was measured using the Dual-Glo Luciferase Reporter Assay System (Promega) following the manufacturer's instructions.
# 6; Room temperature incubation.
# 7; Luminescence signal was obtained using the PerkinElmer ViewLux plate reader. Results were normalized to vehicle control (0% activity) and zero RLU (-100% activity).
# Potency is read from the fitted curve at half-maximal effect.
Compound,"activity change, positive = activation",Potency
Cc1nc2nc(C)c(CCC(=O)NCCc3ccccc3)c(C)n2n1,inactive: 13.2%,–
O=C(Cn1cc(S(=O)(=O)Cc2ccccc2Cl)c2ccccc21)Nc1cccc(C(F)(F)F)c1,inactive: -33.8%,–
Cc1ccc(S(=O)(=O)N(CC(=O)Nc2c(C)cccc2C)c2cccc(Cl)c2)cc1,inactive: -37.9%,–
CCOc1ccc(C(NC(=O)c2cc(OC)c(OC)c(OC)c2)c2cc(Cl)c3cccnc3c2O)cc1 (stereo unspecified),inactive: -37.2%,–
CC(C)Oc1cccc(C(=O)Nc2ccc3oc(-c4ccccc4)nc3c2)c1,inactive: 3.96%,–
Cc1ccc2nc(CN3CCN(S(=O)(=O)c4ccccc4)CC3)oc2c1,inactive: -3.42%,–
COC(=O)c1cc(C)nc2c1c(=O)nc(SCc1c(C)cc(C)cc1C)n2C1CC1,inactive: -39.8%,–
CCc1ccc(NC(=O)CSc2nc3ccccc3c(=O)n2CCC(=O)NC2CCCCC2)cc1,inactive: -0.711%,–
CCC(Sc1nc2cc3c(cc2c(=O)n1CCCC(=O)NCc1ccc2c(c1)OCO2)OCO3)C(=O)NCCCOC (stereo unspecified),inactive: -9.88%,–
CCC(=O)N1c2ccc(S(=O)(=O)N3CCCCCC3)cc2CC1C (stereo unspecified),inactive: -18.6%,–
Cc1ccc(NC(=O)COc2ccc(-c3nn(C)c(=O)c4ccccc34)cc2)c(C)c1,inactive: -43.2%,–
Cc1ccc(O)c([C@H](CCN(C(C)C)C(C)C)c2ccccc2)c1,inactive: -8.63%,–
CSc1nn(Cc2ccc(F)cc2)c(N)c1S(=O)(=O)c1ccc(Cl)cc1,inactive: -37.3%,–
CCCN(CCC)CCCNC(=O)C1CCN(S(=O)(=O)c2cccc3nsnc23)CC1,inactive: -1.88%,–
CCOc1ccc(S(=O)(=O)N2CCN(c3ccc(C)cc3C)CC2)c2ccccc12,inactive: -21.5%,–
COc1cccc(CSc2nc(-c3ccccc3OC)nc3c2Cc2c(CO)cnc(C)c2O3)c1,inactive: -35.6%,–
Cc1ccccc1C(C(=O)NC1CCCC1)N(C(=O)Cn1cnc2ccccc21)c1cccc(F)c1 (stereo unspecified),inactive: -19.4%,–
CCCCCCCCCCCCCCCCO,inactive: -5.33%,–
O=C1COc2ccc(-c3cc(-c4ccc(F)cc4)c4c(n3)-c3ccccc3OC4)cc2N1,inactive: -11.5%,–
CCN(C(=O)c1ccc2c(=O)n3c(nc2c1)CCCCC3)c1cc(C)ccc1C,inactive: -11.1%,–
Cc1ccc(C(=O)CC2(O)C(=O)N(Cc3ccccc3)c3ccc(Br)cc32)cc1 (stereo unspecified),inactive: -27.4%,–
CCCCOC(=O)c1ccc(NC(=O)/C(C#N)=C/c2ccc(C)o2)cc1,"inactive: -16.3% [at 11.5 µM, percent change from vehicle, -100% = no light]",–
CCCCNS(=O)(=O)c1ccc2nc(-c3cccnc3)cc(C(=O)NCCCOCC)c2c1,inactive: 3.08%,–

Compound,"activity change, positive = activation",Potency
Cc1ccc(NC(=O)COCc2cc(-c3cccs3)on2)cc1Cl,inactive: 10.1%,–
C[C@H]1c2cccc(O)c2C(O)=C2C(=O)[C@]3(O)C(O)=C(C(N)=O)C(=O)[C@@H](N(C)C)[C@@H]3[C@@H](O)[C@@H]21,inactive,–
CCOc1ccccc1CNC(=O)CCn1cccn1,inactive: -8.76%,–
Cc1[nH]c2ccccc2c1C(=O)C(=O)NC1CC(=O)N(c2ccccc2)C1 (stereo unspecified),inactive: -9.53%,–
COC(=O)c1ccc(NC(=O)CN(c2cccc(C(F)(F)F)c2)S(C)(=O)=O)cc1,inactive: -17.6%,–
Cc1cccc(-n2c(SCC(=O)Nc3ccccc3C)nc3c(oc4ccccc43)c2=O)c1,inactive: -29.2%,–
CCc1ccccc1N1C(=O)N(C)c2ccccc2S1(=O)=O,inactive: -21.9%,–
CCn1cc2nc(SCc3cccc(F)c3)n(CCc3ccccc3)c(=O)c2n1,inactive: -37.6%,–
CCC(Cc1ccccc1)NC(=O)Cn1ncc2c3ccccc3n(Cc3ccc(F)cc3)c2c1=O (stereo unspecified),inactive: -14.2%,–
COc1ccc(Cl)cc1NC(=O)CCCS(=O)(=O)c1nc(-c2ccc(OC)c(OC)c2)cc(C(F)(F)F)n1,inactive: -92.1%,–
O=C(O)CCn1ccc2cc(S(=O)(=O)N3CCCCC3)ccc21,inactive: -23.5%,–
O=C(NCc1ccccc1Cl)C1CCN(c2ncnc3c2nc2n3CCCCC2)CC1,inactive: -13.2%,–
COc1ccc(-c2csc(-c3c(N)c(C(=O)c4ccccc4)n4ccccc34)n2)cc1,inactive: 0.0736%,–
COc1ccc2nc3cc(Cl)ccc3c(Nc3cc(CN4CCCC4)c(O)c(CN4CCCC4)c3)c2n1,inactive: -6.23%,–
Cc1cc(C)n2c(Nc3cccc(C(F)(F)F)c3)c(-c3ccsc3)nc2n1,inactive: -21.5%,–
Cc1nnc(NC(=O)CSCc2cc(=O)c3ccc(C)c(C)c3[nH]2)s1,inactive: -7.14%,–
CC(C)c1ccc(S(=O)(=O)c2cnc(SCC(=O)Nc3ccc(F)cc3F)nc2N)cc1,inactive: -30.3%,–
Cc1ccc(-n2nc3c(N4CCC(C(=O)NCCC(C)C)CC4)nnc(C)c3c2C)cc1,inactive: -21.1%,–
Cc1ccc2oc(=O)c3cc(C(=O)Nc4cccc(C#N)c4)sc3c2c1,inactive: -6.81%,–
CCC(=O)N1c2ccccc2CC1C(=O)NCCc1ccc(Cl)cc1 (stereo unspecified),inactive: -2.62%,–
O=C(CN1CCN(c2ccc(Cl)cc2)CC1)Nc1ccc(F)c(F)c1,inactive: -16.3%,–
O=C(Cn1nnnc1-c1ccccc1F)Nc1ccc(F)c(F)c1,inactive: -1.5%,–
Cc1cc(C)cc(-n2ccnc2SCC(=O)Nc2ccc(C)c(Cl)c2)c1,inactive: -18.6%,–

Compound,"activity change, positive = activation",Potency
CCOc1ccccc1NC(=O)c1nnn(CC(=O)Nc2ccccc2CC)c1N,inactive: -10.8%,–
COc1ccc(NC(=O)c2[nH]nc3c2CSc2ccccc2-3)c(OC)c1,inactive: 2.09%,–
CCCOc1cccc(C2c3c(oc4cc(C)c(C)cc4c3=O)C(=O)N2CCCN2CCOCC2)c1 (stereo unspecified),inactive: -9.18%,–
CSc1cccc(NC(=O)CN(C)S(=O)(=O)c2ccc3c(c2)CCCN3C(C)=O)c1,inactive: -9.77%,–
CCC(=O)N1CCc2cc(S(=O)(=O)NC(C(=O)NCCc3ccc(C)cc3)C(C)C)ccc21 (stereo unspecified),inactive: -1.83%,–
Cc1ccc(-c2n[nH]c3c2C(c2cccs2)N(c2ccc(Cl)cc2)C3=O)cc1 (stereo unspecified),inactive: -55.4%,–
Cc1ccc(C)c(C(=O)CSc2nc3cc(C(=O)NC4CCCC4)ccc3c(=O)n2CC2CCCO2)c1 (stereo unspecified),inactive: 3.33%,–
COCc1cc(C)n(CC(=O)Nc2cccc(C(C)=O)c2)c(=O)c1C#N,inactive: -7.7%,–
Cc1ccc(-c2nc3cc(NC(=O)c4cc(Br)ccc4Cl)ccc3o2)cc1,inactive: 12.5%,–
CCOc1ccccc1C(=O)N1CCCCC1CCN1CCOCC1 (stereo unspecified),inactive: -4.42%,–
CC1CCN(S(=O)(=O)c2cn(CC(=O)Nc3ccc(F)cc3)c(=O)c3ccccc23)CC1,inactive: -36.1%,–
CC(C)CCNC(=O)c1ccc2c(c1)N(C)C(=O)c1ccccc1S2,inactive: -18.3%,–
CO[C@@H]1[C@@H](OC)[C@H](C)[C@@](O)(CC(=O)O)O[C@H]1[C@H](C)[C@H]1O[C@@]2(CC[C@@](C)([C@H]3CC[C@@](C)([C@@H]4O[C@@H]([C@H]5O[C@](C)(O)[C@H](C)C[C@@H]5C)C[C@@H]4OC4C[C@H](OC)[C@@H](OC)[C@H](C)O4)O3)O2)C[C@H](O)[C@H]1C (stereo partly specified),inactive: -68.6%,–
CCOc1cc2[nH]c(=O)n(CCCCCC(=O)NC(C)CC)c(=O)c2cc1OCC (stereo unspecified),inactive: -7.26%,–
COc1ccc(N2CCN(Cc3nc(-c4ccc(C)cc4)no3)CC2)cc1,inactive: 0.165%,–
CCOC(=O)N1CCc2c(sc3c2c(=O)n(-c2ccc(CC)cc2)c(=O)n3CC(=O)Nc2ccc(C)cc2)C1,inactive: -16.5%,–
CCNc1ccc(-c2nc(-c3ccco3)no2)cc1[N+](=O)[O-],–,active: 355 nM
Cc1ccccc1NC(=O)c1c(NC(=O)Cc2ccccc2)sc2c1CCC2,inactive: -22.6%,–
O=C(NCCOCCn1c(=O)oc2ccccc21)Nc1ccc(Cl)cc1,inactive: -25.9%,–
CCOc1ccc(CNC(=O)c2ccc3c(c2)c(C)c(C)n3Cc2ccc(Cl)cc2)cc1,inactive: -21.2%,–
CN(C)S(=O)(=O)n1cc(/C=C(\NC(=O)c2ccccc2)C(=O)NCCCn2ccnc2)c2ccccc21,inactive: -13.8%,–
COc1ccc(N2CC(NC(=O)CCc3ccccc3)CC2=O)cc1OC (stereo unspecified),inactive: -8.57%,–
Cc1cc(C)c(NC(=O)c2cc(S(=O)(=O)N3CCN(c4ccccc4F)CC3)ccc2F)c(C)c1,inactive: -29.3%,–

Compound,"activity change, positive = activation",Potency
Cc1ccc2oc(=O)n(CCCOc3ccc(Cl)cc3)c2c1,inactive: -10.6%,–
COc1ccc(-n2c3c(cc(-c4nc(-c5ccc(Cl)cc5)cs4)c2=O)C(=O)CC(C)(C)C3)cc1,inactive: -5.22%,–
Cc1ccc2scc(N3CCN(c4ccc(F)cc4)CC3)c(=O)c2c1,inactive: -0.407%,–
O=C1c2[nH]nc(-c3ccc(Br)cc3)c2C(c2cccc(O)c2)N1c1ccc(Cl)cc1 (stereo unspecified),inactive: -68.6%,–
COc1ccc(NC(=O)c2sc3nc4n(c(=O)c3c2C)CCC4)cc1Cl,inactive: 14.9%,–
COc1ccc(C2c3c(n(C)c4ccccc34)C(=O)N2CC(=O)Nc2ccccc2F)cc1 (stereo unspecified),inactive: -18.6%,–
O=C(CC1N=C2c3ccccc3N=C(SCc3ccccc3F)N2C1=O)NCc1ccc2c(c1)OCO2 (stereo unspecified),inactive: -1.95%,–
COc1ccc(Cl)cc1NC(=O)CN(c1cccc(C)c1C)S(=O)(=O)c1ccccc1,inactive: -30.3%,–
CCOc1ccc(C(c2c(O)cc(C)n(CCOC)c2=O)N2CCC(C)CC2)cc1 (stereo unspecified),inactive: -11.6%,–
O=C(NCc1ccc(Cl)cc1)c1cnc2sc(N3CCCC3)nn2c1=O,inactive: -4.85%,–
COc1ccc(CCNC(=O)c2ccc3c(c2)N(Cc2cccc(Cl)c2)C(=O)CS3)cc1OC,inactive: -46.9%,–
COc1ccc2c(c1)sc1ncc(C(=O)NCc3cccc(Cl)c3)c(=O)n12,inactive: -5.76%,–
COc1cc(C)ccc1OCCn1c(-c2ccc(Cl)cc2)nc2ccccc2c1=O,inactive: 0.973%,–
CCc1ccc(CNC(=O)c2cc(-c3ccc(Cl)s3)nc3ccccc23)cc1,inactive: -12.4%,–
Cc1ccc(N(C)S(=O)(=O)c2nnc(NC(=O)C3CCCCC3)s2)cc1,inactive: 6.28%,–
Cc1ccc(CCNC(=O)c2ccc(CSCc3ccccc3Cl)o2)cc1,inactive: -18%,–
CCOc1ccc(NC(=O)Cn2c(=O)oc3cc(S(=O)(=O)N4CCCCCC4)ccc32)cc1,inactive: -23.5%,–
O=C(Cc1ccc(NC(=O)N2CCSc3ncccc32)cc1)NCCc1ccccc1,inactive: -20.5%,–
COc1cc(OC)c(NS(=O)(=O)c2cc(-c3cnc(C)o3)ccc2OC)cc1Cl,inactive: -23.8%,–
Cc1ccc(NC(=O)CN2C(=O)CCn3nc(-c4cccn4C)cc32)cc1,inactive: -0.0583%,–
COCCCNc1nc2c(S(=O)(=O)c3ccc(C)c(C)c3)nnn2c2ccc(Cl)cc12,inactive: -24.7%,–
CCOc1ccc(OCC)c(NC(=O)CCC(=O)N2CCOc3ccccc32)c1,inactive: -27.4%,–
